Experimental data as given in PubChem BioAssay AID686971 (National Center for Advancing Translational Sciences (NCATS), 2013).
Screen size: about 360,000 compounds; about 7,500 (2.1%) were called active. The inconclusive results got no clear call from the source; some entries with a clear call stand among them for comparison. Calls come from the whole dose curve; as a rule, active = well fitted cell-killing curve with a large enough effect; inconclusive = small, poorly fitted or top-dose-only effect, or effect the other way, or another doubt; inactive = no such curve, though single readings can be large or run the other way. No potency is given beside an inconclusive call; the fits are too rough.
Potency is the fitted concentration of half-maximal effect; tags give direction and shape of the fitted curve.

Test: qHTS for induction of synthetic lethality in tumor cells producing 2HG: qHTS for the HT-1080-IDH1KD cell line;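 for activity, negative = toxicity: 0% = DMSO wells and -100% = cell-free medium wells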
Conditions: HT-1080 IDH1 knockdown viability, ATP luminescence, 48 h; activity, negative = toxicity: at 46.1 µM (top of the series) unless noted
In short: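 IDH1KD HT-1080 cells, 750/well, RPMI + 5% FBS; compound pinned after 2 h settling; 48 h, 37 °C; CellTiter-Glo luminescence; % activity normalised to DMSO and no-cell wells; curves fitted, classed by r2 and efficacy.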
With `CCCCC(=O)NC(c1ccc(N(C)C)cc1)c1ccc2cccnc2c1O` (stereo not drawn) the Potency was inconclusive [cytotoxic, full curve]. With `Clc1ccccc1-c1nnc2sc(C3COc4ccccc4O3)nn12` (stereo not drawn) the Potency was inconclusive [cytotoxic, single point]. With `O=C(CN1C(=O)NC(c2ccccc2)(c2ccccc2)C1=O)N1CCN(c2ccc(F)cc2)CC1` the Potency was inconclusive [cytotoxic, single point]. For `Cc1ccc(CN2CCN(Cc3ccc4ncccc4c3)CC2CCO)cc1` (stereo not drawn), the Potency was inconclusive [cytotoxic, single point]. For `c1ccc2cc(OCCCn3ccnc3)ccc2c1`, the “activity, negative = toxicity” value was inactive: -1.94%. With `CC(=O)Nc1ccc(-c2ccnc3c2CC(C)(C(=O)Nc2ccc(Cl)cc2)O3)cc1` (stereo not drawn) the Potency was inconclusive [cytotoxic, single point]. For `Cc1ccc(-c2nc3cc(C)c(Br)c(C)n3c2Cc2cccc(F)c2)cc1`, the Potency was inconclusive [cytotoxic, single point]. For `CC(C)(C)c1ccc(C(=O)Nc2ccc(C(=O)NCc3cccnc3)cc2)cc1`, the Potency was active: 1.03 µM. In the case of `C=CCn1c(CCNC(=O)c2cccs2)nnc1SCC(=O)c1ccc(Cl)cc1`, the Potency is reported as inconclusive [cytotoxic, single point]. With `CCc1nc(SCC(=O)c2ccc3c(c2)OCCO3)c2ccccc2n1` the Potency was inconclusive [cytotoxic, partial curve]. In the case of `COc1ccc(CCNc2cc(C)nc3c(-c4ccccc4)cnn23)cc1OC`, the Potency is reported as inconclusive [cytotoxic, single point]. For `Cc1ccc(Nc2cc(C)nc3c(C)cccc23)cc1`, the Potency was inconclusive [cytotoxic, single point]. For `COc1cc(OC)c2c(-c3ccccc3)cc(=O)oc2c1C(CCN1CCOCC1)c1ccc2c(c1)OCO2` (stereo not drawn), the Potency was inconclusive [cytotoxic, single point]. In the case of `N#CCSc1nnc(N)s1`, the “activity, negative = toxicity” value is reported as inactive: 13.1%. For `CCC1Sc2ccc(S(=O)(=O)CCC(=O)NCc3cccs3)cc2NC1=O` (stereo not drawn), the Potency was inconclusive [cytotoxic, single point]. With `CC(=O)NC(=S)Nc1ccc(NC(=O)COc2ccc(Cl)cc2Cl)cc1` the Potency was inconclusive [cytotoxic, single point]. With `O=C(NCC(=O)N1CCN(Cc2ccccc2)CC1)c1ccc(Br)cc1` the Potency was inconclusive [cytotoxic, single point]. With `OCCN1CCN(CCCN2c3ccccc3CCc3ccccc32)CC1` the “activity, negative = toxicity” value was inactive: -9.52%. In the case of `CCCCCc1ccc(CC(=O)N2CCOCC2)cc1`, the “activity, negative = toxicity” value is reported as inactive: -0.098%. In the case of `CN(C)CCN(C(=O)c1ccc(S(=O)(=O)N2CCCC2)cc1)c1nc2ccc(Br)cc2s1`, the Potency is reported as inconclusive [cytotoxic, single point]. In the case of `CCCCOC(=O)c1ccc(N/C(=N\S(=O)(=O)c2ccccc2)c2ccccc2)cc1`, the Potency is reported as inconclusive [cytotoxic, single point]. For `O=C1c2ccc3c4c(ccc(c24)C(=O)N1CCCCO)C(=O)N(CCCCO)C3=O`, the Potency was active: 11.6 µM. With `COC(=O)C(C(=O)OC)[C@@H]1C=C[C@H](C[N+](=O)[O-])N(C(C)=O)C1` the “activity, negative = toxicity” value was inactive: -0.864%. With `Cc1[nH]nc(-c2cccnc2)c1N=NN(C)C` the Potency was active: 20.6 µM. In the case of `Cc1c(NC(=O)CN2CCN(C(=O)c3ccco3)CC2)c(=O)n(-c2ccccc2)n1C`, the “activity, negative = toxicity” value is reported as inactive: -4.44%. For `CN(C)c1cc(NC(=O)CNC(C)(C)CC(C)(C)C)c2ccccc2n1`, the Potency was inconclusive [cytotoxic, single point]. In the case of `O=C(Nc1nnc(-c2ccccc2)o1)c1cc(-c2cccs2)nc2ccccc12`, the Potency is reported as inconclusive [cytotoxic, single point]. In the case of `Cc1cccc(C(=O)Nc2ccc(C(=O)/C=C/c3cccnc3)cc2)c1`, the Potency is reported as active: 18.4 µM. For `COc1ccc(C#Cc2ccc3c(c2)O[C@@H](CN(C)C(=O)Nc2cccc(OC)c2)[C@H](C)CN([C@@H](C)CO)S3(=O)=O)cc1`, the Potency was inconclusive [cytotoxic, single point]. With `COc1ccc(C(=O)N/C(=C\c2ccccc2)C(=O)N2CCOCC2)cc1` the “activity, negative = toxicity” value was inactive: 16.6%. In the case of `COc1ccccc1N1CCN(C(=O)c2ccc3c(c2)CCN3S(=O)(=O)c2ccccc2)CC1`, the “activity, negative = toxicity” value is reported as inactive: -27.9%. With `CCN(CC)CC(=O)Nc1sc2c(c1C(=O)c1ccccc1OC)CCC2` the Potency was inconclusive [cytotoxic, partial curve]. For `Cc1ccc(N2CCN(c3cc(C)nc4nc(C)nn34)CC2)c(C)c1`, the “activity, negative = toxicity” value was inactive: 14.5%. For `O=C(NCCCCc1ccccc1)c1ccc(F)cc1`, the “activity, negative = toxicity” value was inactive: -7.15%. For `Cc1noc(C)c1COC(=O)c1ccc(-c2nc3ccccc3s2)s1`, the activity, negative = toxicity was inconclusive: -32.8% [cytotoxic]. With `Cc1noc(C(=O)Nc2cc(Cl)ccc2O)c1Cl` the “activity, negative = toxicity” value was inactive: -1.95%. In the case of `O=C(Nc1ccc(F)cc1)Nc1csc2ccccc12`, the Potency is reported as inconclusive [cytotoxic, single point]. For `CC1(C(=O)Nc2ccc3ccccc3c2)CC1(Br)Br` (stereo not drawn), the Potency was inconclusive [rising, partial curve]. For `O=C1CC(c2ccc(F)cc2)CC2=C1C=Nc1ccccc1N2` (stereo not drawn), the Potency was inconclusive [cytotoxic, single point]. With `CC1CC(C)CN(C(=O)C(NS(=O)(=O)c2ccc(Br)s2)c2ccccc2)C1` (stereo not drawn) the Potency was inconclusive [cytotoxic, single point]. In the case of `Cc1cccc(-c2cc3nc4c(c(N5CCOCC5)n3n2)CCCC4)c1`, the Potency is reported as inconclusive [cytotoxic, single point]. In the case of `Cc1noc(/C=C/c2ccccc2F)c1S(=O)(=O)N1CCC(C(=O)N2CCN(C)CC2)CC1`, the Potency is reported as inconclusive [cytotoxic, single point]. For `COC(=O)c1ccc(C(=O)OC)c(NC(=O)C(C)(C)C)c1`, the Potency was inconclusive [rising, partial curve]. For `Cn1c(SC(C(=O)Nc2ccc(F)cc2)c2ccccc2)nc2ccccc21` (stereo not drawn), the Potency was inconclusive [cytotoxic, single point]. With `O=C(CSc1nnc(-c2ccc(Cl)cc2)n1Cc1ccco1)Nc1ccc2c(c1)OCCO2` the Potency was inconclusive [cytotoxic, single point]. In the case of `CC(C)(C)c1ccc(C(=O)CC(=O)c2cc(Cl)ccc2O)cc1`, the Potency is reported as inconclusive [cytotoxic, single point]. For `COc1ccc(-c2oc3ccc(-c4ccc5c(c4)OCO5)cc3c2C#CC2(O)CCCCC2)cc1`, the Potency was inconclusive [cytotoxic, single point]. For `CCC(C)Sc1ccc(-c2nc3ccc(C)cn3c2NCc2ccccc2)cc1` (stereo not drawn), the Potency was “inactive”. With `CCOC(=O)C1=CCN(S(=O)(=O)c2ccccc2Cl)C1c1cccc(Br)c1` (stereo not drawn) the Potency was inconclusive [cytotoxic, single point]. In the case of `COc1cc2c3nnc(-c4ccccc4)c-3cn(Cc3ccc(F)cc3)c2cc1OC`, the Potency is reported as active: 20.6 µM. With `Cc1ccc(Cc2c(-c3ccc(C)cc3)nc3ccc(Cl)cn23)cc1` the “activity, negative = toxicity” value was inactive: 9.02%. With `CCSC1(SCC)N=C(N)C2(C#N)C(c3ccc(F)cc3)C12C#N` (stereo not drawn) the Potency was inconclusive [cytotoxic, single point]. With `O=c1oc2c(CN3CCOCC3)c(O)ccc2c2c1CCCC2` the “activity, negative = toxicity” value was inactive: 0.788%. In the case of `Cc1ccc(-c2noc(CCC(=O)NCC3CCN(Cc4cccc(C)c4)CC3)n2)cc1`, the Potency is reported as inconclusive [cytotoxic, single point]. In the case of `CN(C)S(=O)(=O)c1cccc(CSCc2cccc(S(=O)(=O)N(C)C)c2)c1`, the Potency is reported as inconclusive [cytotoxic, partial curve, poor fit]. For `CCOc1cc(CNc2ccc3c(c2)OCCO3)cc(Br)c1OC`, the Potency was active: 1.46 µM. For `O=C(c1cc2nc(-c3ccc(F)cc3)cc(C(F)(F)F)n2n1)N1CCCCC1c1cccnc1` (stereo not drawn), the Potency was active: 18.4 µM. With `CCn1cc([N+](=O)[O-])c(C(=O)N2N=C(c3ccc(O)c(OC)c3)CC2c2ccccc2O)n1` (stereo not drawn) the Potency was inconclusive [cytotoxic, single point]. For `CN(C)c1ccc(-c2csc(C(C)(O)c3cccc(F)c3)n2)cc1` (stereo not drawn), the Potency was inconclusive [cytotoxic, single point]. With `COc1ccc(CN(CC(=O)NCCc2ccccc2)C(=O)CCC(=O)Nc2ccccn2)cc1` the Potency was inconclusive [cytotoxic, full curve, poor fit]. In the case of `CCn1c(CSCc2ccc(C)cc2)nnc1SCC(=O)N1CCN(c2ccccc2)CC1`, the Potency is reported as inconclusive [cytotoxic, single point]. For `O=C(COC(=O)c1c2c(nc3ccccc13)CCCC2)c1ccc(Br)s1`, the Potency was inconclusive [cytotoxic, single point]. In the case of `O=c1cc(-c2ccccc2)nc2c(-c3ccccc3)c(C(F)(F)F)[nH]n12`, the Potency is reported as inconclusive [cytotoxic, partial curve]. For `CCc1nc2ccc(C(=O)NCc3ccc4c(c3)OCO4)cn2c1N(CC)CCOC`, the “activity, negative = toxicity” value was inactive: 6.07%. With `O=C(O)c1ccc(N=NNc2cccc([N+](=O)[O-])c2)cc1` the “activity, negative = toxicity” value was inactive: -14.8%. With `COc1ccc(S(=O)(=O)N(C)C[C@H]2Oc3ccc(NC(=O)Nc4ccc(C(F)(F)F)cc4)cc3C(=O)N([C@H](C)CO)C[C@@H]2C)cc1` the Potency was inconclusive [cytotoxic, single point]. For `C=CCN(CC=C)Cc1c(O)ccc2c(=O)c(-c3ccccc3)coc12`, the Potency was inconclusive [cytotoxic, single point]. With `O=C(c1cccc([N+](=O)[O-])c1)c1ccccn1` the “activity, negative = toxicity” value was inactive: 2.44%.
